# Measured values from the supplement of paper PMC11417369.
# ± gives the standard deviation of the averaged measurements. This is one part of the list.
# Test system: PfAP2-I AP2 domain 3 (GST-tagged)
# Test: gcPBM binding intensity (ln(normalized median fluorescence intensity)); higher = stronger DNA binding
# Method in brief: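 For binding intensity, the highest Masliner-normalised natural-log median intensity across replicate spots of either probe orientation was taken. Protein bound to the array was stained with Alexa488 anti-GST antibody and scanned at 488 nm. The protein, GST-tagged P. falciparum DNA-binding domains from E. coli at about 25 μg on average, had been applied for 1 h to an Agilent 4 × 180k array of primer-extended double-stranded 36-bp intergenic genomic probes and negative controls.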
row,Sequence,gcPBM binding intensity (ln)
1,AAAAAAAAAATTTACTGTACACATTTGGGATACTCA [XGTACX_site5191],7.58 ± 0.26
2,GATCAAATAGAAAATACATGCAATGTGTGAAATAAC [TGCATGCA_site835],8.32 ± 0.92
3,TTTCAAATGGAATGTGTGCACATAAATGTAAATAAA,10.1 ± 0.16
4,TATAAGTTGATATATACACACATATATAAATATGTA [CACACA_site7526],7.4 ± 0.4
5,TATTTATAAAAATATACACACATACAAATATGCATA [CACACA_site4555],7.57 ± 0.5
6,CTTATTTAATGTATCACACACGAGAATAAAAAATAA [CACACA_site3020],7.86 ± 0.54
7,ATGGTTTTCAGAAAAACATGCATACAATAATAAAAA [TGCATGCA_site815],8.02 ± 0.71
8,AATTAATATATAAATAATAAAAAAAAATATATAAAC [XGTACX_negctrl_site280],7.71 ± 0.77
9,CAATATTTTCATAGATGTACTTTGGACTTATTATAT [XGTACX_site4849],7.5 ± 0.37
10,TAAATAAAAGATACGAGTACGTATGATGTTAACCTC [XGTACX_site8840],7.8 ± 0.59
11,GTATATAGTATGTAGAGTACTAATTTCCATATGTTC [XGTACX_site7816],7.7 ± 0.44
12,ATTTATATATAGGTGTGTCCACAAATAGTATGTAAA [XGTACX_site2916],8.19 ± 0.38
13,TATAACCATATATACACACACATATAAATATAAATA [CACACA_site7089],7.67 ± 0.59
14,TATATTTTAATTTGAAGTACTAATATTTATTTATAT [XGTACX_site7458],7.53 ± 0.38
15,ATATATATATATTTCGTGCACTGATAATATTATTTT,11.2 ± 0.35
16,AAGGTGGAAACAATTACACACACACTAAAAAAAAAA [CACACA_site7493],8.3 ± 0.61
17,ATGAAAAAAAATAAAAAATATATATATATATATATA [CACACA_negctrl_site236],9.47 ± 0.59
18,TATTTTTAAACAAAACTGTATTTATTTTTTAAAATT [CACACA_negctrl_site1449],7.38 ± 0.54
19,TTTTGTTATTTTTGTATGCACTACATATTATTATAT,10.2 ± 0.035
20,TAGTTTTTTATATATTGTACAAATGATATATTATAT [XGTACX_site1002],7.86 ± 0.54
21,AAACTTTTTTTAAAAACACACATATAGATTTATATA [CACACA_site7842],7.83 ± 0.55
22,GAAATTAAAAAATTTATGCACACTTTAAAAAAAAAA [CACACA_site3769],10.1 ± 0.25
23,ATATATATATATAATTGTACATTTTTATGTTTTATA [XGTACX_site4560],9.36 ± 0.39

row,Sequence,gcPBM binding intensity (ln)
1,ATATGTAGTTTTTATTGTACGTGTAGAAGAAATAAT [XGTACX_site6608],8.32 ± 0.33
2,TTCATTAAAATTATTACACACAGTTCTTCAACCAAA [CACACA_site3504],7.62 ± 0.57
3,TTTTAAACAGGACACACACACATATAGATTTATATA [CACACA_site6560],7.88 ± 0.46
4,AATGATTTTCAATCGAAATGAAACTTAGAAGATATA [CACACA_negctrl_site1475],7.42 ± 0.61
5,ACAAAATAATTGTTTACACACCCATTTGTAATTTTA [CACACA_site3615],7.79 ± 0.69
6,TCTGTAAACATATTCACACACATAAATTCGCATATA [CACACA_site1866],7.68 ± 0.59
7,TGTATGAAAATAAATGCATGCCAAATATATATATAT [TGCATGCA_site132],9.14 ± 0.2
8,AAAATGAAATATGTTATATATATATATATATATATA [CACACA_negctrl_site1752],9.41 ± 0.57
9,TATCATTGTTCATGCTTGCACTTTTGTTACTGTTCC [GTGCAC_site9425],8.18 ± 0.93
10,GAAAATTTATATTGCACACATAGGGAATAAAAAAAA [CACACA_site2146],10.7 ± 0.4
11,TAATTTCCTTAAGAATGTACTTACATTTTATTATTT [XGTACX_site5998],7.54 ± 0.45
12,TAATATGAAATGTGTACACACGCACCCACAAAAAAA [CACACA_site8949],9.11 ± 0.31
13,GTTTATGTATTATTATGTACGTATCATAATATATAT [XGTACX_site2385],8.28 ± 0.38
14,ATGGACAAGTTAAACGCACACAAATATATACAGACA [CACACA_site1652],8.87 ± 0.47
15,AAAAAATATAAAAAAAGTACACAAAAACTACAAAAA [XGTACX_site2677],8.01 ± 0.57
16,AAAAAGAGGAAAAAGATAAAGAAATTAAAGGAGAGA [CACACA_negctrl_site423],7.55 ± 0.71
17,TTTAATCATTTTATTTGTACTCATAAAAAATATAAT [XGTACX_site5537],7.82 ± 0.099
18,ATAACTTTATTTTCCTGTACACACATTTGACATATT [XGTACX_site7192],8.54 ± 0.54
19,ATATATAATATAAGATGTACAATAAAATCTATATAT [XGTACX_site546],7.88 ± 0.43
20,CATAAAATTGTGAAGTGTACATATTTTTAAATATAA [XGTACX_site8986],8 ± 0.31
21,AGAAATATCTAATTGTGTACTCAAGAAAAAGTTACG [XGTACX_site372],7.99 ± 0.28
22,GGTAGTTATTATCTCCGTACTTATAAAGAAAAAAGG [XGTACX_site4674],7.92 ± 0.7
